# Measurements as given in the supplement of paper PMC3724861.
# The list shows a part of the results.
# System: T1, Caupolican (Caup) homeodomain DNA-binding domain
# T1 sequence: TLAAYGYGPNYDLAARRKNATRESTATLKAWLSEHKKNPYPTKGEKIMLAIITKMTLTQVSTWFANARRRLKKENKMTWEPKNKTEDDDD
# Assay: PBM E-score (8-mer, recovered from the published 9-mer minima) (E-score (dimensionless, -0.5 to 0.5)); Drosophila protein; higher = stronger relative binding preference, active = 0.31 or more
# Protocol: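 Protein binding microarray (PBM): in vitro transcribed/translated Caupolican (Caup) homeodomain DNA-binding domain (residues 214-303) applied at 100 nM to a universal 8-mer PBM array (Agilent AMADID 015681). The 8-mer enrichment score (E-score, range -0.5 to 0.5) was computed, and each 9-mer score is the minimum E-score of its two constituent 8-mers. The E-score is the same for a 9-mer and its reverse complement; 0.31 is the stated binding threshold.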
row,Sequence,PBM E-score
1,ATCAGTGG,inactive: 0.0687
2,GTGGGATA,inactive: -0.0102
3,CCATGAGA,inactive: -0.061
4,GCTATGTA,inactive: 0.271
5,AGGGTTAT,≥ 0.0931
6,AGCCTGTC,inactive: -0.0495
7,CAAAATGC,inactive: 0.0504
8,AGTGCACA,inactive: 0.0472
9,AATATGGC,inactive: 0.115
10,CGATACGC,inactive: -0.0266
11,CCTCGATC,inactive: -0.13
12,ATAGGGCC,inactive: -0.127
13,TCCTAGAA,inactive: -0.0532
14,CCGAGTTC,inactive: -0.0561
15,TCCGGGCA,≥ -0.145
16,ACGTGCTG,inactive: 0.0361
17,AAGCGCGC,inactive: -0.139
18,GAAACCAA,inactive: 0.0894
19,ACCCGTCC,inactive: -0.206
20,GAGGAGAC,inactive: -0.136
21,AGTGTTCA,inactive: 0.198
22,CTGTGCCC,inactive: -0.154
23,AAACGTTT,inactive: 0.072
24,CTGCACGA,inactive: -0.01

row,Sequence,PBM E-score
1,ACCGATCC,inactive: -0.0859
2,AGCTCGTG,inactive: 0.0341
3,GCCTCCAC,inactive: -0.223
4,CATACCGC,inactive: -0.0667
5,CCTTTAGC,inactive: -0.0323
6,CGAGCCTA,inactive: -0.0252
7,AAGAGTTA,≥ 0.0747
8,AATGGGCG,inactive: -0.00794
9,GCATATGA,inactive: 0.0647
10,AAACAGTA,≥ 0.225
11,GACACAAC,inactive: 0.216
12,CCACGGTA,inactive: -0.0587
13,ACGCGCTG,inactive: -0.164
14,TGGGGGAA,inactive: -0.237
15,AATGGGGA,inactive: -0.0547
16,GTCACCAA,inactive: 0.0824
17,CAGCGAGC,inactive: -0.104
18,AGGAGAGG,inactive: -0.164
19,AGGCAGGG,inactive: -0.102
20,GAAATACC,inactive: 0.0151
21,GAAGCCCC,inactive: -0.244
22,CAGCATGG,inactive: 0.0496
23,CTTCATGA,inactive: -0.0142
24,ATATGACC,inactive: 0.021

row,Sequence,PBM E-score
1,AGCAATCA,inactive: 0.0951
2,AGCCCGCC,inactive: -0.245
3,GAACGCTC,inactive: -0.129
4,ATCAGAAT,inactive: 0.066
5,CTCTGTAC,inactive: 0.137
6,CTACGTTC,inactive: -0.0202
7,ACGCACCC,inactive: -0.0794
8,GTACTAAA,inactive: 0.229
9,CCTCCTAC,inactive: -0.136
10,CCGACGTA,inactive: -0.0642
11,GTCTCCAA,inactive: -0.0607
12,CGATAGAC,inactive: 0.0316
13,ATTTTTGG,inactive: -0.0403
14,ACACTAAC,inactive: 0.149
15,CACACCCA,inactive: 0.0024
16,ACTAGTGC,inactive: 0.0444
17,CAGGACTG,inactive: -0.0782
18,GGAGGGAC,inactive: -0.132
19,CTTACTAC,inactive: 0.156
20,ATCGCCCC,inactive: -0.134
21,CAACGGAG,inactive: -0.125
22,CTTACAGC,inactive: 0.0782
23,CCACTCAG,inactive: -0.0569
24,CACCCGGA,≥ -0.00956

row,Sequence,PBM E-score
1,CCCCGGAC,inactive: -0.105
2,GTCGTCTA,inactive: 0.0468
3,AGGCCTCA,inactive: -0.195
4,CAAGAAGC,inactive: -0.0853
5,AGTAAACA,inactive: 0.235
6,CGTTTCGC,inactive: -0.188
7,GCAACTAA,inactive: 0.0557
8,CGAACGCG,inactive: -0.0926
9,TCCCTCGA,inactive: -0.113
10,GAGTTAGC,inactive: -0.0248
11,ACCTTTGG,inactive: -0.197
12,GTGCGCAA,inactive: -0.09
13,AGGGGACT,inactive: -0.177
14,CCTTCATA,inactive: -0.00957
15,CGTCGTGA,inactive: -0.0474
16,ACTAACGA,inactive: 0.0387
17,AGTATAGC,inactive: 0.013
18,GATAATCC,inactive: 0.0237
19,AGAGCTGC,inactive: -0.165
20,CGTAAGAA,inactive: 0.00432
21,CTATTGAC,inactive: 0.0132
22,ATGCTACA,inactive: 0.26
23,CCTGCACG,inactive: -0.0334
24,AAGGTAGC,inactive: -0.125

row,Sequence,PBM E-score
1,CGCCCACA,inactive: -0.118
2,ACAGGTGG,inactive: 0.0225
3,ATAAGCCA,inactive: 0.00974
4,ATAGGGCG,inactive: -0.159
5,AGCGTTCG,inactive: -0.141
6,CGTAGACC,inactive: -0.149
7,TAAAGGAA,inactive: 0.07
8,GACCATAA,inactive: -0.00449
9,CGCGTACA,inactive: 0.168
10,AGTGCGTC,inactive: -0.109
11,CGGTCGGA,inactive: -0.0659
12,ACAATATC,inactive: 0.198
13,CTATGGTA,inactive: 0.0305
14,AACCACGC,inactive: 0.0198
15,ACAGTTAC,inactive: 0.224
16,ATGCGTGA,inactive: 0.0972
17,ATGCTGTC,inactive: 0.17
18,AACCAAGC,inactive: -0.0326
19,CCGCCGGA,inactive: -0.175
20,GCTCACGA,inactive: -0.108
21,GATTGTCC,inactive: 0.114
22,AAACCATT,inactive: 0.0332
23,GTAATGAA,inactive: 0.127
24,CATTACTC,inactive: 0.131

row,Sequence,PBM E-score
1,AGGAGCAG,inactive: -0.216
2,ACCATGTA,active: ≥ 0.422
3,ATTCCGTA,inactive: 0.0304
4,ATCACCGG,inactive: -0.0415
5,ATTTGGTG,inactive: 0.121
6,CTCGCCAA,inactive: -0.134
7,GCTTAAAC,inactive: 0.0137
8,CCGCATAG,inactive: -0.0554
9,GAGAACGC,inactive: -0.0756
10,CCTGAGTC,inactive: -0.149
11,ATGTGCCC,inactive: 0.0731
12,ACACATGG,inactive: 0.167
13,CCCCCTCC,inactive: -0.387
14,CTAAGGAA,inactive: 0.00378
15,GTGAGGCA,inactive: -0.0692
16,CGCGTGCC,inactive: -0.227
17,CAGAAGAC,inactive: 0.0298
18,AGGTCCAG,≥ 0.0427
19,TAGCCCCA,inactive: -0.192
20,ACCATATG,inactive: 0.145
21,CTGCTCGA,inactive: -0.131
22,AAACTCGA,inactive: 0.0205
